# Assay results: article PMC4336329 (PLoS ONE, 2015)
# Among all 310,000 compounds or so, about 2,200 (0.71%) showed an effect of 50% or more. Effects have a minus sign here. This is one part of the list.
# Target: human ether-à-go-go-related gene (hERG) potassium channel (human, UniProt Q12809)
# Experiment: primary screen, population patch clamp on CHO cells stably expressing hERG
# Chain of human ether-à-go-go-related gene (hERG) potassium channel (Q12809 whole entry, looked up): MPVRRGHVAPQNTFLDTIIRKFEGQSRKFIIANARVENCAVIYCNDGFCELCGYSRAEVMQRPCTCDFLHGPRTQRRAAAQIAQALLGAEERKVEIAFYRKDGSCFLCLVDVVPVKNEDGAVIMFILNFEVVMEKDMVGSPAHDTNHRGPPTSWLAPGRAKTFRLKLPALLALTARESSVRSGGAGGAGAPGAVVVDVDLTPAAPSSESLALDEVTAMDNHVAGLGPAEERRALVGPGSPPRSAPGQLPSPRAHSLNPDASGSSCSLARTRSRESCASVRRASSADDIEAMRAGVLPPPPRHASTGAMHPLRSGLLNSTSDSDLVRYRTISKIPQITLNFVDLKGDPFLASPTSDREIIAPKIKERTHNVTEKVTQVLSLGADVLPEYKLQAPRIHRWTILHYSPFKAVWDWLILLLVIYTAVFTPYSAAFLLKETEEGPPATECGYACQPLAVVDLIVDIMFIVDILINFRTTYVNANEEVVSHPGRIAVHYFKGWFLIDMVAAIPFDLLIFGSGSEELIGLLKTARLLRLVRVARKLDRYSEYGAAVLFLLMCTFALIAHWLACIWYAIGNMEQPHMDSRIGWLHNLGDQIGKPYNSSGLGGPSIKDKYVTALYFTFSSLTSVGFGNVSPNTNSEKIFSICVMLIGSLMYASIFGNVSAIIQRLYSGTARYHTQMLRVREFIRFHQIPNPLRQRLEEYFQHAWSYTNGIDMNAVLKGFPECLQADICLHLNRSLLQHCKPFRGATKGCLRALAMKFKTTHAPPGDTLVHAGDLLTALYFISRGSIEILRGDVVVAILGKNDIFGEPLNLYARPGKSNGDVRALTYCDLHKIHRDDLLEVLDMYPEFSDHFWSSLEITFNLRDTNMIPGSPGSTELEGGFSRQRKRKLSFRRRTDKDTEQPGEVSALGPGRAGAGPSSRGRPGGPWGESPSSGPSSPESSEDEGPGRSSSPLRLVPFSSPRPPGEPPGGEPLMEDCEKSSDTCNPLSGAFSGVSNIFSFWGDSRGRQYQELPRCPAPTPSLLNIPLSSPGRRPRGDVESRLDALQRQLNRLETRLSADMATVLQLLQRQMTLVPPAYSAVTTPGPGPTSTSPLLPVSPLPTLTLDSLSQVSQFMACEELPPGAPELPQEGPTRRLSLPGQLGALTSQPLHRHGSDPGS
row,SMILES,"hERG current change (%, negative = inhibition) at 1uM"
1,COc1ccc(-c2nc(C)c(C(C)=O)n2O)cc1OC,7.23%
2,CCCc1cc2c(cc1NC(=O)c1ccc(C(C)(C)C)cc1)OCO2,0.511%
3,O=C(OCC(=O)N1CCOCC1)c1ccccc1O,13.6%
4,COc1cc(C(=O)OCC(=O)NC2CCCC2)cc(NC(=O)c2ccco2)c1OC,2.43%
5,COC(=O)Nc1snnc1C,14.4%
6,COc1ccc(CN2CCNC(=O)C2CC(=O)N(C)C2CCOCC2)c(F)c1 (stereo not shown),9.73%
7,Cn1c(=O)c2c(nc(Br)n2CCSc2nnnn2-c2ccccc2)n(C)c1=O,-11.9%
8,Cc1nc(N)nc2c1CCCC2,9.49%
9,CCOc1ccc(S(=O)(=O)Nc2ccc(OC)nc2)cc1,11.8%
10,CC(C)(C)SC(=O)CC1NS(=O)(=O)OCC1NC(=O)OCC(Cl)(Cl)Cl (stereo not shown),8.28%
11,CCC(=O)NCCc1nc2cc(NC(=O)c3ccc(OC)cc3)ccc2n1C,9.89%
12,Cn1c(=O)c2c(nc(N3CCc4ccccc4C3)n2C)n(C)c1=O,-3.88%
13,Cc1ccc(N(Cc2ccc(C(=O)NC3CCCCC3)cc2)S(C)(=O)=O)cc1C,2.27%
14,O=C(c1cccc(N2CCCC2=O)c1)N1CCC2(CC1)OCCO2,8.95%
15,O=C1CC(N2CCOCC2)C(=O)N1Cc1ccc(N2CCCC2=O)cc1 (stereo not shown),1.77%
16,COc1cccc(-c2nc(CS(=O)CC(=O)NCCc3ccccc3)c(C)o2)c1 (stereo not shown),12.6%
17,COc1ccc(C2c3ccc4ccccc4c3Oc3ncn(CCO)c(=N)c32)cc1OC (stereo not shown),-13.9%
18,CN(CC/C=C1/c2ccccc2CSc2ccccc21)CCCO.Cl,7.3%
19,Cn1c(=O)[nH]c(=O)c2c1nc(Br)n2Cc1cccc(Br)c1,14.1%
20,Cc1ccc(CSc2nnc(SCC(=O)N/N=C/C=C/c3ccco3)s2)cc1,-0.755%

row,SMILES,"hERG current change (%, negative = inhibition) at 1uM"
1,CC(CN(C)Cc1ccccc1)OC(=O)c1cccs1.Cl (stereo not shown),5.59%
2,Cc1cc2nc(CS(=O)(=O)c3ccccc3)cc(=O)n2[nH]1,15.5%
3,Cc1cccc(/N=C/c2c(O)c3ccccc3oc2=O)n1,14.6%
4,CSc1nc2nc(C)c(C/C=C/c3ccccc3)c(=O)n2[nH]1,14%
5,Cc1ccccc1OCC(=O)Nc1ccc2c(c1)n(C)c(=O)n2C,5.59%
6,O=C1CCCC(=O)N1c1ccc(NCCOCCO)c([N+](=O)[O-])c1,8.63%
7,O=C(c1cccs1)N1C(=O)c2cccc3cccc1c23,5.09%
8,CNC(=O)CCC(=O)Nc1ccc(C(=O)OC)cc1,6.66%
9,C=CCn1c(SC(C)C(=O)Nc2ccc(F)c(F)c2F)nnc1C1CC1 (stereo not shown),5.98%
10,O=[N+]([O-])c1ccc(-n2cccn2)c(-c2nn[nH]n2)c1,5.12%
11,O=C(c1ccccc1Br)N1CCN(c2ccc([N+](=O)[O-])c(N3CCOCC3)c2)CC1,6.56%
12,CCOc1ccc(C(Nc2cccnc2)c2cc(Cl)c3cccnc3c2O)cc1 (stereo not shown),16%
13,CN1CCN(CCCN(Cc2ccco2)C(=S)Nc2ccc(Cl)cc2)CC1,-53.8%
14,COc1ccc(C2C(=O)c3ccccc3C2=O)cc1,3%
15,O=C(CCC(=O)c1ccc[nH]1)c1ccc(Cl)cc1,10.1%
16,COc1ccc(OC)c(C2C(C(=O)Nc3cccnc3)=C(C)NC3=C2C(=O)CCC3)c1 (stereo not shown),15.2%
17,O=C(COc1ccccc1[N+](=O)[O-])NCC1(N2CCCCC2)CCCCC1,-4.91%
18,CCCCC(=O)Nc1ccc(C)c(O)c1,1.66%
19,CN(C)CCCNc1oc(-c2ccccc2Cl)nc1S(=O)(=O)c1ccc(F)cc1,-17.5%
20,Cc1cc(C)cc(N(C(=O)c2nsc(Cl)c2Cl)C(C(=O)NC2CCCC2)c2ccc(O)cc2)c1 (stereo not shown),2.1%

row,SMILES,"hERG current change (%, negative = inhibition) at 1uM"
1,Cc1ccnc(NS(=O)(=O)c2cccc3nsnc23)c1.Cl,8.94%
2,O=C(N/N=C/c1ccccn1)c1ccc2nc[nH]c2c1,9.86%
3,CC(CCc1ccccc1)NC(=O)c1ccccc1C(=O)O (stereo not shown),16.2%
4,Cc1cccc(C(=O)NC(=S)N2CCc3ccccc3C2)c1,14.5%
5,CC(C)CC(=O)Nc1nnc(S(=O)(=O)N2CCc3ccccc32)s1,5.56%
6,CN(C)c1ccc(-c2nn3c(C4CCCCC4)nnc3s2)cc1,0.279%
7,CCOC(=O)c1c(NC(=O)CSc2nnc(-c3c[nH]c4ccccc34)n2CCOC)sc2c1CCCCC2,10.5%
8,CCN(C(=O)Cn1cnc2c1c(=O)n(C)c(=O)n2C)C1CCCCC1,7.03%
9,Cc1ccccc1-n1c(-c2ccc(Cl)cc2)cnc1SCC(=O)NC1CCS(=O)(=O)C1 (stereo not shown),5.68%
10,Cc1ccc(C(=O)Nc2ccccc2-c2ccccc2)cc1S(=O)(=O)Nc1cccc(C)c1C,12.8%
11,COc1ccc(N2CC(C(=O)Nc3cccnc3)CC2=O)cc1 (stereo not shown),17.6%
12,COc1cc(OC)c(-c2cc(C(=O)O)ccc2OC)c(OC)c1,16.7%
13,CCOc1cccc(NC(=O)C(Cc2cccs2)c2nn[nH]n2)c1 (stereo not shown),6.65%
14,Cc1ccc(C)c(N2N=C(C(=O)Nc3nccs3)CCC2=O)c1,15%
15,COc1cc(C(=O)OCC(=O)c2c[nH]c3ccccc23)ccc1OCC(=O)N1CCOCC1,12.7%
16,Cc1ccc(C(CC(=O)N2CCCC2)c2ccccc2)c(O)c1C (stereo not shown),-14.8%
17,O=C(N/N=C/c1ccccn1)c1ccc(Br)cc1,-1.71%
18,S=c1[nH]c2ccccc2n2cccc12,13.8%
